Results: PubChem BioAssay AID463173 (ICCB-Longwood Screening Facility, Harvard Medical School, 2010)
Screen size: about 52,000 compounds; about 1,700 (3.3%) were called active. Rule as the data show it: active = survival mostly below about 52% (no sharp cut-off); inactive = mostly above about 56%. The list shows a part of the results.

Each molecule was assayed on Wild type (assay: growth inhibition of S. aureus wild type versus tarO mutant, primary screen, teichoic acid synthesis inhibitors, RN4220, OD600 (AID 463173)). Conditions: S. aureus RN4220 wild type/DeltatarO growth, OD600, 18 h, hits give low values, screened at 18.75 µg/mL (by protocol).

| Structure (SMILES) | survival |
| --- | --- |
| CCOc1ccc(N2CC(c3nc4ccccc4n3Cc3ccccc3F)CC2=O)cc1 (centres undefined) | inactive: 113% |
| COc1ccc(-c2nnc(SCC(=O)NC3CCCC3)nc2-c2ccc(OC)c(OC)c2)cc1OC | inactive: 60% |
| O=C(NCc1ccccc1)C1CCN(S(=O)(=O)c2ccc3c(c2)CCCN3C(=O)C2CCC2)CC1 | inactive: 85% |
| CCOC(=O)c1scc(-c2ccc(C)cc2)c1S(=O)(=O)N1CCN(c2ccccc2F)CC1 | inactive: 120% |
| O=C(CCC1N=C2c3ccccc3N=C(SCc3cccc(F)c3)N2C1=O)NCc1cccs1 (centres undefined) | inactive: 84% |
| CCOc1ccc(NC(=O)c2ccc(F)c(S(=O)(=O)N(CC)Cc3ccccc3)c2)cc1 | inactive: 77% |
| Cc1cccc(NC(=O)C(=O)NCC(c2cccnc2)N2CCc3ccccc3C2)c1C (centres undefined) | inactive: 85% |
| Cc1ccc(NC(=O)NCc2cccn2Cc2ccccc2)c(C)c1 | inactive: 67% |
| CCCCCSc1ncnc2c1sc1nc(N3CCOCC3)c3c(c12)CCCC3 | inactive: 64% |
| COCCNC(=O)c1cc2ccccc2o1 | inactive: 106% |
| Cc1ccc(Cl)cc1N1CCN(C(=O)CCNS(=O)(=O)c2ccc3c(c2)CCN3C(=O)C2CC2)CC1 | inactive: 73% |
| COc1ccc(OC)c(NC(=O)c2cc(S(=O)(=O)NCCc3ccc(Cl)cc3)ccc2F)c1 | inactive: 79% |
| CCC(C)NC(=O)Cn1c(=O)n(-c2ccc(C)c(C)c2)c(=O)c2c3c(sc21)CCCCC3 (centres undefined) | inactive: 91% |
| COC(=O)c1ccc(-c2nc3cc(NC(C)=O)ccc3o2)cc1 | inactive: 150% |
| Cc1ccc(C(=O)Nc2ccc3oc(-c4cccnc4)nc3c2)cc1 | inactive: 112% |
| N#Cc1ccc(N2CCOCC2)cc1C#N | inactive: 105% |
| CCOc1ccc(CCNC(=O)c2sc3ncccc3c2-n2cccc2)cc1OCC | inactive: 45% |
| CCOc1ccc(OCC)c(NC(=O)c2ccc(-c3ccccc3)s2)c1 | inactive: 23% |
| CCCCc1nn2c(=O)cc(COC(=O)C3CCCCC3)nc2s1 | inactive: 70% |
| Cc1nc2nc(SCC(=O)NC3CCC(C)CC3)nn2c(C)c1Cc1ccccc1 (centres undefined) | inactive: 101% |
| C=C(C)c1cccc(C(C)(C)NC(=O)N2CCCC2)c1 | inactive: 115% |
| COc1ccc(-n2c(=O)c3ccccc3n(Cc3cccc(C)c3)c2=O)cc1 | inactive: 75% |
| CCCN(c1ccc(C(C)C)cc1)S(=O)(=O)c1ccc2c(c1)oc(=O)n2CC(=O)OCC | inactive: 73% |

| Structure (SMILES) | survival |
| --- | --- |
| COc1cccc(Cn2c(CNS(=O)(=O)c3ccc(C(C)(C)C)cc3)nc3cccnc32)c1 | inactive: 134% |
| COc1ccccc1N1CCN(C(=O)c2cc(S(=O)(=O)N3CCC(C)CC3)cn2C)CC1 | active: 0% |
| COc1ccc(-c2nc(CNC(=O)Nc3ccccc3)c(C)o2)cc1 | inactive: 84% |
| COc1cc2c(-c3cc(Br)ccc3O)nc3c(c(C)nn3-c3ccccc3)c2cc1OC | inactive: 67% |
| O=C(Nc1nnc(S(=O)(=O)Nc2ccccc2)s1)C1CCCCC1 | inactive: 44% |
| CCCSc1nnc2[nH]c(=O)cc(C)n12 | inactive: 135% |
| CCOC(=O)Cn1c(=O)n(CC2CCCO2)c2nc(-c3ccc(C(C)C)cc3)nc(C(N)=O)c21 (centres undefined) | active: 1% |
| CCOC(=O)c1ccc(N2C(=O)c3n[nH]c(C)c3C2c2ccc(OCC)cc2)cc1 (centres undefined) | inactive: 76% |
| Cc1ccccc1N(C)S(=O)(=O)c1nnc(NC(=O)C(C)C)s1 | inactive: 73% |
| COC(=O)C(C#N)C(c1cccnc1)c1c(C)[nH][nH]c1=O (centres undefined) | inactive: 108% |
| N#C/C(=C(\O)c1ccco1)c1nc2ccccc2[nH]1 | inactive: 118% |
| Cc1ccccc1NC(=O)Cn1c(=O)n(Cc2ccccc2)c(=O)c2sc3ccccc3c21 | inactive: 68% |
| CCOc1ccc(C(=O)NCC(c2ccco2)S(=O)(=O)c2cccs2)cc1 (centres undefined) | inactive: 69% |
| Cc1ccccc1-c1nn2c(=O)cc(CN3CCN(S(=O)(=O)c4ccc(Cl)cc4)CC3)nc2s1 | inactive: 119% |
| Cc1nn(-c2ccc(N3CCCC3)nn2)c(C)c1CCC(=O)N1CCN(c2ccccc2)CC1 | inactive: 78% |
| COc1ccc2c(C)c(CCC(=O)NCc3ccc(Cl)cc3)c(=O)oc2c1C | inactive: 88% |
| CCN(Cc1ccccc1)C(=O)c1nn(-c2ccc(OC)cc2)c(=O)c2c1c1ccccc1n2C | inactive: 82% |
| Cc1[nH]c2ccccc2c1C1(O)C(=O)N(Cc2ccccc2Cl)c2ccccc21 (centres undefined) | inactive: 72% |
| Cc1ccc(C)c(N2C(=O)CS/C2=N\NC(=O)c2ccc(S(=O)(=O)N3CCCC3)cc2)c1 | inactive: 123% |
| COc1ccc(NC(=O)Cn2c(=O)n(-c3cccc(C(F)(F)F)c3)c(=O)c3sccc32)cc1 | inactive: 102% |
| COC(=O)C(NC(=O)CCc1c(C)nc2c(c(C)nn2-c2ccccc2)c1C)C(C)C (centres undefined) | inactive: 86% |
| Cc1ccccc1NC(=O)[C@H](CSCc1ccccc1)N1Cc2ccccc2C1=O | inactive: 69% |
| CCc1ccc(S(=O)(=O)Nc2ccc(-c3ccc(N4CCCC4)nn3)cc2)cc1 | inactive: 72% |

| Structure (SMILES) | survival |
| --- | --- |
| CCC1CN(C(=O)Nc2ccc(Br)cc2F)c2ccccc2S1 (centres undefined) | inactive: 97% |
| O=C(NCC(c1ccc(Cl)cc1)N1CCCCC1)c1ccccc1F (centres undefined) | inactive: 94% |
| COc1ccccc1N1CCN(C(=O)CSc2n[nH]c(-c3ccccc3Cl)n2)CC1 | inactive: 75% |
| CCOc1ccc(OCC)c(NC(=O)CCc2nc3cccnc3n2-c2ccccc2)c1 | inactive: 86% |
| COc1cc(OC)cc(C(=O)Nc2ccc3nc(Nc4cccc(C(F)(F)F)c4)cc(C)c3c2)c1 | inactive: 79% |
| c1ccc2c(c1)nc1n2CCC1 | inactive: 111% |
| O=C(NCc1ccc(F)cc1)c1cnc(N2CCCCC2)c2ccccc12 | inactive: 69% |
| CCCOc1ccc(CNC(=O)C2CCCN(c3nc4c(C)cc(C)cc4s3)C2)cc1 (centres undefined) | inactive: 93% |
| C#CCn1c(C2CC(=O)N(c3ccc(OCC)cc3)C2)nc2ccccc21 (centres undefined) | inactive: 89% |
| CCN(CC)C(=O)C1CCN(c2nnc(C)c3c(C)n(-c4ccc(Cl)cc4)nc23)CC1 | inactive: 66% |
| COc1ccc(NC(=O)Cn2c(=O)n(CCCC(=O)NCCc3ccc(C)cc3)c(=O)c3ccccc32)cc1Cl | inactive: 93% |
| Cc1ccc(CCNC(=O)c2ccc3c(c2)N(Cc2ccccc2)C(=O)c2ccccc2S3=O)cc1 (centres undefined) | inactive: 93% |
| COc1ccc(N2CCN(c3ncnc4onc(-c5ccc(F)cc5)c34)CC2)cc1 | inactive: 93% |
| Cc1cccc(NC(=O)c2ccc(F)c(S(=O)(=O)N3CCC4(CC3)OCCO4)c2)c1 | inactive: 71% |
| CC(C)NC(=O)C1CC(=O)N(c2ccc(Oc3ccccc3)cc2)C1 (centres undefined) | inactive: 101% |
| CC(C)Cn1c(=O)c2ccccc2n2c(CCC(=O)N3CCN(c4ccccc4)CC3)nnc12 | inactive: 127% |
| COc1ccc(C(=O)Nc2nnc(C)s2)cc1 | inactive: 72% |
| CC(C)c1ccc(C2c3c(-c4ccccc4O)n[nH]c3C(=O)N2Cc2ccncc2)cc1 (centres undefined) | inactive: 106% |
| CCCCOC(=O)CSc1nnc(-c2ccc(C)cc2)o1 | active: 8% |
| COc1cc(OC)c(NC(=O)N2CCc3cc(OC)c(OC)cc3C2CC(=O)O)cc1Cl (centres undefined) | inactive: 82% |
| CCc1ccc(C2CC(=O)c3c([nH]c(C(=O)OCCOc4ccccc4)c3C)C2)cc1 (centres undefined) | inactive: 83% |
| Cc1ccc2onc(CNC(=O)Nc3cc(F)ccc3F)c2c1 | inactive: 86% |
| Cc1ccc2c(c1)Cc1c(nc(-c3ccc(Cl)cc3)nc1SCC(=O)N1CCCCC1)O2 | inactive: 123% |

| Structure (SMILES) | survival |
| --- | --- |
| Cc1ccn2c(Nc3ccc4c(c3)OCCO4)c(-c3cccs3)nc2c1 | inactive: 66% |
| Cc1ccc(Cl)cc1NC(c1ccc(F)cc1)c1nnc(-c2ccccc2)o1 (centres undefined) | inactive: 117% |
| Cc1ccc(NC(=O)C(CC(C)C)NS(=O)(=O)c2ccc3c(c2)oc(=O)n3C)c(C)c1 (centres undefined) | inactive: 80% |
| CC(=O)N1CCc2c(sc3c2c(=O)n(CCc2ccccc2)c(=O)n3CC(=O)Nc2ccc(C)c(F)c2)C1 | inactive: 90% |
| COc1cccc2c1Oc1ncccc1N(c1ccc(C(=O)NCc3ccccc3Cl)s1)C2 | inactive: 119% |
| O=C(CSc1nnc(-c2ccc(Cl)cc2)o1)Nc1ccc(F)cc1 | inactive: 83% |
| CCc1ccccc1NC(=O)Cn1c(=O)n(Cc2ccc3c(c2)OCO3)c(=O)c2ccc(C(=O)NC3CCCCC3)cc21 | inactive: 129% |
| Cc1ccccc1-c1nc(CS(=O)(=O)CC(=O)NCC(C)c2ccccc2)c(C)o1 (centres undefined) | inactive: 81% |
| CCc1ccc(OCC(=O)Nc2cc3oc4ccccc4c3cc2OC)cc1 | inactive: 76% |
| COc1cc(OC)c(NC(=O)C2CCCN(c3ncnc4c3nc3n4CCCCC3)C2)cc1Cl (centres undefined) | inactive: 127% |
| O=C(COc1ccccc1Cl)NCC1(N2CCOCC2)CCCCC1 | inactive: 104% |
| COc1cccc(C(=O)NC2CCSC2=O)c1 (centres undefined) | inactive: 107% |
| CCCc1nn2c(=O)cc(COC(=O)c3cccc(NC(=O)COc4ccccc4C)c3)nc2s1 | inactive: 82% |
| O=C(c1cc(-c2ccccc2)on1)N1CCCc2ccccc21 | inactive: 114% |
| Cc1cccc(OCCn2c(-c3ccc(Cl)cc3)nc3ccccc3c2=O)c1 | inactive: 112% |
| CCN1CCN(CCCNC(=O)c2cc3c(=O)n(C)c4ccccc4c3s2)CC1 | inactive: 86% |
| O=C(NCCc1ccccc1)c1cnc2sc(N3CCCC3)nn2c1=O | inactive: 80% |
| CC(=O)c1c(C)nc2nc(-c3ccccc3)nn2c1C | inactive: 65% |
| COC(=O)C1=C(CS(=O)(=O)c2cc(Cl)ccc2OC)NC(=O)NC1c1ccccc1 (centres undefined) | inactive: 85% |
| CCCCOc1ccc(C(=O)N2CCN(CCc3ccncc3)CC2)cc1 | inactive: 110% |
